According to PubChem BioAssay AID686979 (National Center for Advancing Translational Sciences (NCATS), 2013):
In all, about 420,000 compounds went through this assay and about 50,000 (12%) were called active. Not shown: some 26% with an inconclusive outcome. The call rests on the fitted dose curve; in most records, active means well fitted inhibition curve with a large enough effect; inconclusive means small, poorly fitted or top-dose-only effect; inactive means flat fitted curve, though single readings scatter. This is a selection; strong and weak results do not stand in their true shares.

test: qHTS for Inhibitors of human tyrosyl-DNA phosphodiesterase 1 (TDP1): qHTS in cells in presence of CPT; conditions: chicken DT40 Tdp1-/-;hTDP1 cells + 20 nM CPT, ATP luminescence, 48 h; series mostly up to 46.2 µM; activity change, negative = growth inhibition: at the top concentration; further: nearly all actives have a fitted effect of over 55% in size
Source text: Human tyrosyl-DNA phosphodiesterase 1 (TDP1) is a novel repair gene, and we propose to use it as a new target for anticancer drug development. TDP1 is not an essential protein, but under treatment with topoisomerase I poison (camptothecin: CPT), TDP1 works as a critical factor for cell survival. To directly identify novel TDP1 inhibitors active in a cellular environment, we have knocked-out the Tdp1 gene in chicken DT40 cells (Tdp1-/-) and generated a complemented counterpart cells that contains a stable transfection of the human TDP1 gene (Tdp1-/-;hTDP1 cells). For the primary screen, Tdp1-/-;hTDP1 cells will be exposed to small molecules in the presence or absence of CPT, and their growth kinetics will be evaluated after 48 hours by measuring ATP activity. […] The hit compounds will then be evaluated in the presence or absence of CPT using Tdp1-/- cells. […] In tertiary assays, biochemical gel-based assays will be used to assess whether the hit compounds specifically target TDP1. To this end, we have screened this cell line against the MLSMR in two primary screens. In one screen we add CPT and in the other we screen in the absence of CPT; this AID represents the screen where CPT was present. NIH Chemical Genomics Center [NCGC] NIH Molecular Libraries Probe Centers Network [MLPCN] MLPCN Grant: MH095538 Assay Submitter (PI): Yves Pommier, NCI
DT40-hTDP1 cells with 20 nM Camptothecin (add 20 microL of 1 mM CPT stock in 1 L of cell culture medium) were dispensed at 400 cells/5microL/well in tissue culture treated 1536-well white wall/solid bottom assay plates (Greiner Bio-One North America, NC, U.S.A.) using a Multidrop Combi 8 channel dispenser (Thermo Fisher, Waltham, MA, USA). 23 nL compounds and controls were transferred using the pin tool (Kalypsys, San Diego, CA, USA) to the assay plates. The assay plates were then incubated at 37 masculineC for a minimum 48 hr. Three microL of Cell Titer Glo solution was added to the plates and incubated at RT in dark for 30 min. Luminescence was read using ViewLux (Perkin Elmer) with 1 sec exposure slow speed, high gain and 2x binning.
On the % scale 0 is the no-effect control and ±100 the full control effect; potency means the concentration at half of the fitted maximal effect.

**Q.** Which Potency does the source give for O=C(CSc1cccc[n+]1[O-])c1ccccc1Br here?
**A.** active: 3.66 µM

**Q.** With Cn1ccnc1SCCNC(=O)CCc1nnc(CCc2ccccc2)o1 as the molecule, how does the “activity change, negative = growth inhibition” value read?
**A.** inactive: 34.2%

**Q.** Which Potency does the source give for CCCC(=O)Nc1ncnc2c1ncn2[C@@H]1O[C@@H]2COP(=O)(O)O[C@H]2[C@H]1OC(=O)CCC here?
**A.** inactive

**Q.** With CCOC(=O)C1CCCN(CC(=O)Nc2c(C(=O)OC)[nH]c3ccc(Br)cc23)C1 (centres undefined) as the molecule, how does the Potency read?
**A.** active: 16.4 µM

**Q.** With COc1cccc(CN(C)C(=O)c2cc(S(=O)(=O)N3CCN(c4ccccc4)CC3)ccc2Cl)c1 as the molecule, how does the Potency read?
**A.** active: 23.1 µM

**Q.** For COc1ccccc1C(=O)Nc1nnc(S(=O)(=O)N2CCCCC2)s1, which “activity change, negative = growth inhibition” value is on record?
**A.** inactive: -27.3%

**Q.** With CCn1cc(C(=O)N2CCN(c3ccccc3OC)CC2)c2cc(OC)c(OC)cc2c1=O as the molecule, how does the “activity change, negative = growth inhibition” value read?
**A.** inactive: -24.7%

**Q.** Which Potency does the source give for CC1=C(\C=C/C(C)=C/C=C\C(C)=C\C(=O)O)C(C)(C)CCC1 here?
**A.** active: 14.6 µM

**Q.** For CC(=O)N1CCc2ccc(S(=O)(=O)N3CCc4ccccc43)cc21, which Potency is on record?
**A.** active: 20.6 µM

**Q.** For Nc1ccc(S(=O)(=O)c2ccc(N)cc2)cc1, which Potency is on record?
**A.** inactive

**Q.** For CCOC(=O)C(CCc1ccccc1)NC(C)C(=O)N1C(C(=O)O)CC2CCCC21 (centres undefined), which “activity change, negative = growth inhibition” value is on record?
**A.** inactive: -6.66%

**Q.** For CN(Cc1ccccc1)C(=O)CCN1C(=O)c2cccc([N+](=O)[O-])c2C1=O, which “activity change, negative = growth inhibition” value is on record?
**A.** inactive: 6.13%

**Q.** For C/C=C/c1ccc(Oc2nnnn2-c2ccc(C(N)=O)cc2)c(OC)c1, which Potency is on record?
**A.** active: 14.6 µM

**Q.** Which Potency does the source give for CCN1C(=O)[C@H]2[C@@H](c3ccc(-c4ccc(Cl)c(Cl)c4)cc3)N[C@@](CC(C)C)(C(=O)OC)[C@H]2C1=O here?
**A.** active: 4.11 µM

**Q.** For CC(C)(C)c1cnnn1-c1ccc(C(=O)CCl)cc1, which Potency is on record?
**A.** active: 1.3 µM

**Q.** For CC(=O)c1ccc(NC(=O)c2cn(C)c(=O)c3ccccc23)cc1, which “activity change, negative = growth inhibition” value is on record?
**A.** inactive: 1.61%

**Q.** For CC(C)(C)S(=O)N1Cc2ccc(CO)cc2[C@H]1CCO (some centres undefined), which “activity change, negative = growth inhibition” value is on record?
**A.** inactive: -27.6%

**Q.** Which Potency does the source give for O=C(CCCN1CC=C(n2c(=O)[nH]c3ccccc32)CC1)c1ccc(F)cc1 here?
**A.** inactive

**Q.** Which “activity change, negative = growth inhibition” value does the source give for CC(=C/c1ccccc1)/C=N/n1c(-c2ccco2)n[nH]c1=S here?
**A.** inactive: -7.97%

**Q.** Which “activity change, negative = growth inhibition” value does the source give for COc1ccc(NC(=O)c2cn(CCC#N)nc2-c2cccs2)cc1 here?
**A.** inactive: -11.1%

**Q.** Which “activity change, negative = growth inhibition” value does the source give for COc1cccc(CNC(=O)c2cc(S(=O)(=O)N3CCCCC3)c[nH]2)c1 here?
**A.** inactive: -18.3%

**Q.** Which “activity change, negative = growth inhibition” value does the source give for O=C1C2C3C=CC(C2C(=O)N1C1CCCCC1)C1C(=O)N(C2CCCCC2)C(=O)C31 (centres undefined) here?
**A.** inactive: -29.2%

**Q.** For O=C(CSc1nc2ccccc2[nH]1)N/N=C/C=C/c1ccccc1[N+](=O)[O-], which “activity change, negative = growth inhibition” value is on record?
**A.** inactive: 3.02%

**Q.** With Cc1cc(/C=C(\C#N)C(=O)O)c(C)n1CCC(C)C as the molecule, how does the “activity change, negative = growth inhibition” value read?
**A.** inactive: -19.3%

**Q.** For CCCCCC(O)(c1ccc(OC)cc1)C(CN1CCOCC1)c1ccccc1 (centres undefined), which Potency is on record?
**A.** active: 16.4 µM

**Q.** Which “activity change, negative = growth inhibition” value does the source give for Cc1ccccc1C(=O)NCC(=O)Nc1ccccc1C(F)(F)F here?
**A.** inactive: 14.6%

**Q.** Which Potency does the source give for Cc1cccc(N/N=C/c2ccc(C)s2)c1 here?
**A.** active: 29.1 µM

**Q.** Which “activity change, negative = growth inhibition” value does the source give for COc1nc(C#N)nc(N(C)C)n1 here?
**A.** inactive: 2.28%

**Q.** With Cc1cc(-c2ccc(C)c(S(=O)(=O)NCc3cccc(Br)c3)c2)on1 as the molecule, how does the “activity change, negative = growth inhibition” value read?
**A.** inactive: -24.5%

**Q.** Which “activity change, negative = growth inhibition” value does the source give for O=C1S/C(=C\c2ccccc2)C(=O)N1CC(O)Cn1c2ccccc2c2ccccc21 (centres undefined) here?
**A.** inactive: 0.12%

**Q.** Which “activity change, negative = growth inhibition” value does the source give for Cc1cc(C)c2c(CN3CC(C)OC(C)C3)cc(=O)oc2c1C (centres undefined) here?
**A.** inactive: 15.8%

**Q.** With CCO[C@@H]1OC(C(=O)NCc2ccccc2)=C[C@H](c2ccc3c(c2)OCO3)[C@H]1CCCO as the molecule, how does the “activity change, negative = growth inhibition” value read?
**A.** inactive: -8.27%

**Q.** For C[C@@]12C(=O)OC(=O)[C@]1(C)C1CCC2O1, which Potency is on record?
**A.** inactive

**Q.** With CCN(CC)CCSC(=O)C(c1ccccc1)c1ccccc1 as the molecule, how does the “activity change, negative = growth inhibition” value read?
**A.** inactive: -20.2%

**Q.** With CCOC(=O)CCCc1c[nH]c2ccccc12 as the molecule, how does the “activity change, negative = growth inhibition” value read?
**A.** inactive: -3.4%

**Q.** With COc1ccc(/C=N/NC(=O)c2ccn[nH]2)cc1Cn1cc([N+](=O)[O-])cn1 as the molecule, how does the “activity change, negative = growth inhibition” value read?
**A.** inactive: -0.547%

**Q.** Which Potency does the source give for COc1cc(-c2cc(N)n(S(=O)(=O)c3ccc(F)cc3)n2)cc(OC)c1OC here?
**A.** active: 16.4 µM

**Q.** With Cc1cc(C)nc(/N=C(\N)Nc2ccc(-c3ccccc3)cc2)n1 as the molecule, how does the Potency read?
**A.** active: 7.31 µM

**Q.** For Cn1c(=O)oc2cc(S(=O)(=O)Nc3ccccc3O)ccc21, which “activity change, negative = growth inhibition” value is on record?
**A.** inactive: -24.8%

**Q.** With COc1ccc(-c2cn(Cc3ccc4ccccc4c3)nn2)cc1 as the molecule, how does the “activity change, negative = growth inhibition” value read?
**A.** inactive: -29.5%

**Q.** For C[C@H]1CN([C@@H](C)CO)C(=O)CCCn2nncc2CO[C@H]1CN(C)S(=O)(=O)c1ccccc1, which “activity change, negative = growth inhibition” value is on record?
**A.** inactive: -6.42%

**Q.** For COCCCNC(=O)C(F)(F)C(F)(F)C(=O)NCCCOC, which “activity change, negative = growth inhibition” value is on record?
**A.** inactive: -8.99%

**Q.** For O=C(Nc1ccccc1)O[C@@H]1C[C@H]2CCCC(=O)N3CC[C@@H](C1)[C@@H]23, which “activity change, negative = growth inhibition” value is on record?
**A.** inactive: -9.04%

**Q.** With COc1cc(NC(=O)C(=O)Nc2ccc3nc4n(c(=O)c3c2)CCCCC4)cc(OC)c1OC as the molecule, how does the “activity change, negative = growth inhibition” value read?
**A.** inactive: -5.95%

**Q.** Which Potency does the source give for Brc1ccc2c(c1)-c1ccccc1C1=NCCN12 here?
**A.** active: 1.46 µM

**Q.** For COC(=O)c1ccc(-c2sc3nc(N4CCOCC4)c4c(c3c2N)CCCC4)o1, which Potency is on record?
**A.** active: 18.4 µM

**Q.** Which “activity change, negative = growth inhibition” value does the source give for CN(C)CCC[C@]1(c2ccc(F)cc2)OCc2cc(C#N)ccc21 here?
**A.** inactive: -20.1%

**Q.** For COc1ccc2c(c1)sc(=N)n2CC(=O)Nc1cc(C)cc(C)c1, which “activity change, negative = growth inhibition” value is on record?
**A.** inactive: 30.2%

**Q.** With CCC(Oc1ccccc1)C(=O)N[C@@H]1C(=O)N2[C@@H]1SC(C)(C)[C@@H]2C(=O)O (some centres undefined) as the molecule, how does the “activity change, negative = growth inhibition” value read?
**A.** inactive: 0.328%
